Measured values as given in PubChem BioAssay AID686978 (National Center for Advancing Translational Sciences (NCATS), 2013).
Out of some 420,000 compounds screened, about 64,000 (15%) were called active. The shares of active, inactive and inconclusive entries below differ from those in the screen. Calls follow the shape of the dose curve; as a rule, active = well fitted inhibition curve with a large enough effect; inconclusive = small, poorly fitted or top-dose-only effect; inactive = flat fitted curve, though single readings scatter. Potencies of inconclusive entries are left out as doubtful fits.

Experiment: qHTS for Inhibitors of human tyrosyl-DNA phosphodiesterase 1 (TDP1): qHTS in cells in absence of CPT; also: nearly all actives have a fitted effect of over 55% in size
Settings: DT40 Tdp1-/- hTDP1 cells, no CPT, ATP luminescence, 48 h; activity change, negative = growth inhibition: at 46.2 µM (top of the series) unless noted
Summary of the method: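 No-CPT arm: Tdp1-/-;hTDP1 DT40 cells (400/well) plus compounds, incubated ≥48 hr at 37 °C. Readout CellTiter-Glo luminescence.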
% is scaled to controls: 0 for no effect and ±100 for the full control effect; potency is read from the fitted curve at half-maximal effect; tags tell the direction and shape of the fitted curve.

Row | SMILES | Potency | activity change, negative = growth inhibition
1 | S=C(Nc1ccccc1)NC1CCN(Cc2ccccc2)CC1 | inconclusive [inhibitor, single point] | 
2 | COc1ccc(C(=O)N[C@H](C(=O)NCc2cccs2)C(C)C)cc1 |  | inactive: 3.08%
3 | c1coc(CNc2ncnc3nc[nH]c23)c1 | inactive | 
4 | COc1cc(CNC(=O)C2CC2)ccc1OCc1ccccc1 | inconclusive [inhibitor, partial curve] | 
5 | Cc1cc(C(=O)OCC(=O)Nc2ccccc2)c(C)o1 |  | inactive: -20.2%
6 | Cc1nnc(SCc2cccc3ccccc23)s1 |  | inconclusive: -35.8% [inhibitor]
7 | CCn1c(C(C)NC(=O)c2ccc(C)cc2)n[nH]c1=S (configuration not stated) |  | inactive: -9.48%
8 | COc1ccc(CN(C(C)=O)c2cccc(C)c2C)cc1 | inconclusive [inhibitor, single point] | 
9 | CC[C@]1(C(=O)OC)[C@H]2C(=O)N(Cc3ccccc3)C(=O)[C@H]2[C@H]2CN=C(SCc3ccc(Cl)cc3)N21 | inconclusive [inhibitor, single point] | 
10 | O=C(CSc1ncccn1)N/N=C/c1ccc2c(c1)OCO2 |  | inactive: 3.2%
11 | Cc1nc(C)c(C(=O)Nc2ncc([N+](=O)[O-])s2)o1 | inconclusive [inhibitor, partial curve, poor fit] | 
12 | C[C@H]1C=C(C(=O)NCc2nc3ccccc3[nH]2)O[C@@H](OCc2ccc(CO)cc2)C1 |  | inactive: -17.4%
13 | Cc1cccc(OCC(=O)NC(C)C(=O)N/N=C/c2c(OCc3ccccc3)ccc3ccccc23)c1 (configuration not stated) | inconclusive [inhibitor, single point] | 
14 | Cc1ccc(-n2c(-c3cccc(C)c3)nc3c(cnn3-c3ccccc3)c2=O)cc1 | inconclusive [inhibitor, single point] | 
15 | O=C(O)CCNS(=O)(=O)c1ccc(Oc2ccccc2)cc1 |  | inactive: -5.79%
16 | Cc1cccc(N2C(=O)CN(Cc3ccccc3)C2=S)c1 |  | inactive: -26%
17 | S=C(Nc1ccccn1)NC1CCCC1 |  | inactive: 0.175%
18 | N#CCCN(C(=O)COC(=O)c1ccc2ccccc2n1)c1ccccc1 |  | inactive: 20.8%
19 | CC1=C(C(=O)OCC2CCCO2)C(c2coc3ccc(Cl)cc3c2=O)C2=C(CCCC2=O)N1 (configuration not stated) |  | inactive: -28.5%
20 | COc1c(C)cccc1C(=O)Nc1cc(Cl)ccc1N1CCOCC1 | inconclusive [inhibitor, single point] | 
21 | Cc1ccc(C(=O)OCC(=O)NC2CCCC(C)C2C)cc1S(=O)(=O)N1CCCCC1 (configuration not stated) | inconclusive [inhibitor, single point] | 
22 | O=C(c1cc(-c2cccnc2)nc2ccccc12)N1CCCc2ccccc21 | inconclusive [inhibitor, single point] | 
